Test results: PubChem BioAssay AID463173 (ICCB-Longwood Screening Facility, Harvard Medical School, 2010)
The campaign covered roughly 52,000 compounds. About 4,300 (8.3%) were called active. Rule as the data show it: active = survival mostly below about 52% (no sharp cut-off); inactive = mostly above about 56%. The list shows a part of the results.

tested on: DeltatarO mutant; test: S. aureus survival, RN4220 and DeltatarO strains – OD600, teichoic acid synthesis inhibitors, primary screen (AID 463173); conditions: S. aureus RN4220 wild type/DeltatarO growth, OD600, 18 h, active compounds read low, screened at 18.75 µg/mL (by protocol)

| Compound | survival |
| --- | --- |
| CC1CCCN(c2nc3c(S(=O)(=O)c4ccc(C(C)C)cc4)nnn3c3ccsc23)C1 (stereo not drawn) | inactive: 54% |
| O=C(NCc1ccc2c(c1)OCO2)c1ccc2c(c1)N(Cc1cccc(Cl)c1)C(=O)c1ccccc1S2=O (stereo not drawn) | inactive: 75% |
| Cc1c(Cl)cccc1NC(=O)C1CCCN(c2nnc(-n3c(C)ccc3C)s2)C1 (stereo not drawn) | inactive: 91% |
| Cc1ccc(CSC2=Nc3ccccc3C3=NC(CCC(=O)NCc4cccs4)C(=O)N23)cc1 (stereo not drawn) | inactive: 94% |
| O=C(NCC(c1ccc2c(c1)OCO2)N1CCN(c2ccccc2)CC1)C(=O)Nc1cccc(F)c1 (stereo not drawn) | inactive: 66% |
| CC(=O)Nc1ccc(C(=O)CSc2nnc3scc(-c4ccccc4)n23)cc1 | inactive: 89% |
| CCN(CCCNC(=O)c1ccc(Sc2ccc(F)cc2)c(NC(C)=O)c1)c1ccccc1 | inactive: 90% |
| COc1ccc(CNC(=O)Cn2c(=O)nc(-c3ccccc3F)c3cc(Cl)ccc32)cc1 | inactive: 72% |
| CCN(CC)C(=O)CSc1nc2cc3c(cc2c(=O)n1CCCCCC(=O)NCc1ccc(OC)cc1)OCO3 | active: -1% |
| COc1cc2c(-c3ccccc3O)nc3c(c(C)nn3-c3ccccc3)c2cc1OC | inactive: 68% |
| CN1CCN(C(=O)C(C(=O)N2CCN(C)CC2)C23CC4CC(CC(C4)C2)C3)CC1 | inactive: 74% |
| CC(=O)N(CN1C(=O)CCC1=O)c1ccc(Cl)c(Cl)c1 | inactive: 75% |
| COc1cccc(CN2C(=O)c3ccccc3Sc3ccc(C(=O)NCCc4ccc(C)cc4)cc32)c1 | inactive: 78% |
| O=C(CN1CCCC1)N/N=C/c1c(O)ccc2ccccc12 | inactive: 74% |
| CC(O)c1nc2ccccc2n1Cc1ccccc1 (stereo not drawn) | inactive: 57% |
| COc1ccc(-c2csc(-c3nc(-c4ccc(Br)s4)cs3)n2)cc1F | inactive: 61% |
| COc1ccccc1C(=O)NCc1nnnn1-c1ccc(C)c(C)c1 | inactive: 92% |
| CCC1CCCCN1CCCNC(=O)c1c(O)nc2ccccn2c1=O (stereo not drawn) | inactive: 99% |
| CCCC1=Nc2cc(C(=O)NCCc3ccc(OCC)cc3)ccc2Sc2ccccc21 | inactive: 59% |
| Cn1c(-c2ccccc2)cnc1NC(=O)c1ccc(F)cc1 | inactive: 81% |
| Cc1ccc(CNC(=O)C(=O)NCC(c2cccnc2)N2CCN(c3ccc(F)cc3)CC2)cc1 (stereo not drawn) | inactive: 73% |
| CCCc1nn2c(=O)cc(COC(=O)c3cccs3)nc2s1 | inactive: 118% |

| Compound | survival |
| --- | --- |
| CCOc1ccc(C(=O)c2cn(CC(=O)Nc3ccc4c(c3)OCCO4)c3ccc(OC)cc3c2=O)cc1 | inactive: 90% |
| Cc1ccccc1CNC(=O)Cn1ccc2cc(S(=O)(=O)N3CCCCC3)ccc21 | inactive: 119% |
| COc1ccccc1NC(=O)c1sc2nc(C)c(C(=O)Nc3ccc(C)cc3C)c(-c3ccc(Br)cc3)c2c1N | inactive: 89% |
| Cc1ccc(C)c(NC(=O)c2nc(S(C)(=O)=O)ncc2N(Cc2ccc(C(C)(C)C)cc2)Cc2ccco2)c1 | active: 55% |
| O=C(CCc1nc2ccccc2[nH]c1=O)OCc1ccc(Cl)cc1 | inactive: 98% |
| Cc1ccn2cc(C(=O)NC3CCCCC3)nc2c1 | inactive: 49% |
| CN1C(=O)Cc2cc(S(=O)(=O)N3CCN(c4cccc(C(F)(F)F)c4)CC3)ccc21 | inactive: 116% |
| Cc1cccc(C(=O)Nc2ccc(C(=O)OCc3cc(=O)n4c5c(sc4n3)CCCC5)cc2)c1 | inactive: 101% |
| CCOc1ccc(C(=O)CSc2nc3cc(C(=O)NC4CCCC4)ccc3c(=O)n2CC2CCCO2)cc1 (stereo not drawn) | active: 8% |
| CC(=O)c1ccc(NC(=O)c2ccc3c(c2)nnn3C2CCCC2)cc1 | inactive: 81% |
| COc1ccccc1C(=O)N1CCCCC1CCN1CCOCC1 (stereo not drawn) | inactive: 85% |
| Cc1cccc(NC(=O)Cn2cc(C(=O)C3CCCCC3)c3ccccc32)c1C | inactive: 63% |
| O=C(Nc1ccc(-c2nc3cc(NC(=O)c4ccccc4F)ccc3o2)cc1)c1ccccc1F | inactive: 90% |
| N#Cc1ccccc1NC(=O)CSc1ncn[nH]1 | inactive: 164% |
| COc1ccccc1NC(=O)Cn1c(=O)n(Cc2cccs2)c(=O)c2cccnc21 | inactive: 70% |
| CCN(CC)c1ccc2cc(-c3nc(-c4ccc(Cl)cc4Cl)cs3)c(=O)oc2c1 | active: 37% |
| Cc1nc(-c2ccccc2)sc1-c1ccc(SCC(=O)NCc2ccccc2)nn1 | inactive: 58% |
| CC(OC(=O)CCc1nc2ccccc2[nH]c1=O)C(=O)c1ccccc1 (stereo not drawn) | inactive: 96% |
| CCOC(=O)c1ccc(Nc2nc3nonc3nc2Nc2cccc(C)c2C)cc1 | active: -1% |
| CCOc1ccc(CCn2c3c(c(=O)[nH]c2=O)C(NC(=O)c2ccccc2)(C(F)(F)F)C(=O)N3)cc1OCC (stereo not drawn) | inactive: 68% |
| CCCCCn1c(=O)[nH]c2cc(C(=O)N3CCN(c4cc(Cl)ccc4C)CC3)ccc2c1=O | inactive: 67% |
| CCOC(=O)N1CCC(NC(=O)c2ccc3c(c2)N(Cc2cc(C)ccc2C)C(=O)c2ccccc2S3(=O)=O)CC1 | inactive: 55% |

| Compound | survival |
| --- | --- |
| Cc1ccccc1C(=O)OCc1cc(=O)n2nc(C3CC3)sc2n1 | inactive: 89% |
| Cc1ccc(C(=O)OCc2cc(=O)n3nc(-c4cccs4)sc3n2)cc1 | inactive: 95% |
| CCOC(=O)c1c(S(=O)(=O)NCC(=O)Nc2cc(C)ccc2OC)c(C)n(C)c1C | inactive: 82% |
| CC(Sc1nnc(COc2ccccc2)n1-c1ccccc1)C(=O)O (stereo not drawn) | inactive: 78% |
| OC1CCN(C(c2cccc(C(F)(F)F)c2)c2nnnn2Cc2ccc(F)cc2)CC1 (stereo not drawn) | inactive: 76% |
| COc1ccc(NC(=O)CSc2nc3ccccc3nc2Cc2ccc(C)cc2)cc1Cl | inactive: 68% |
| COc1ccc(C)cc1NS(=O)(=O)c1ccc2c3c(cccc13)C(=O)N2 | inactive: 58% |
| N#Cc1ccccc1NC(=O)CNCC1CCCO1 (stereo not drawn) | inactive: 76% |
| COc1ccc(CNC(=O)CCC2N=C3c4ccccc4N=C(SCc4ccccc4F)N3C2=O)cc1 (stereo not drawn) | active: 37% |
| Cc1ccc(-c2nc(SCC(=O)NCC3CCCO3)c3c(=O)n(C)c(=O)n(C)c3n2)cc1 (stereo not drawn) | inactive: 99% |
| CCn1ccc(C(=O)Nc2sc(C(=O)OC)c(C)c2C(=O)OC)n1 | inactive: 89% |
| CCOC(=O)CSC1=Nc2ccccc2C2=NC(CCC(=O)NCc3ccc(OC)cc3)C(=O)N12 (stereo not drawn) | inactive: 74% |
| Cc1ccccc1N1CCN(S(=O)(=O)c2ccccc2)CC1 | active: 28% |
| Oc1c(C(c2ccccc2F)N2CCN(c3ccccc3F)CC2)sc2nc(-c3ccco3)nn12 (stereo not drawn) | inactive: 87% |
| CCc1ccc(OCC(=O)Nc2cc(-c3ccc(C)cc3)no2)cc1 | inactive: 85% |
| CCOc1ccccc1C(=O)Nc1nncs1 | inactive: 81% |
| COc1ccc(CNC(=O)CSc2ncc3c(n2)-c2cc(Cl)ccc2N(Cc2ccccc2)S3(=O)=O)cc1 | inactive: 102% |
| Cc1ccc(Cl)cc1N1CCN(C(=O)Cn2c(-c3cccs3)cc3cc(F)ccc32)CC1 | inactive: 98% |
| CCOC(=O)Cn1c(=O)cc(C(F)(F)C(F)(F)F)c2c(C)nn(CC)c21 | inactive: 73% |
| COc1cccc(-n2c(-c3ccccc3F)nc3c(cnn3-c3ccc(C)cc3)c2=O)c1 | inactive: 75% |
| CCOC(=O)C(Cc1ccccc1)NC(=O)CCc1c(C)nc2nc(C)nn2c1C (stereo not drawn) | inactive: 84% |
| COc1ccc(NC(=O)c2sc3nc4c(cc3c2N)CCCCCC4)cc1 | inactive: 127% |

| Compound | survival |
| --- | --- |
| COCCNC(=O)CSc1nc2cc3c(cc2c(=O)n1CCCC(=O)NCc1ccc2c(c1)OCO2)OCO3 | inactive: 84% |
| Cc1ccccc1OCc1nc2c3cnn(-c4ccccc4F)c3ncn2n1 | inactive: 75% |
| Cc1ccccc1NC(=O)CSc1nc(-c2ccccc2)cn1-c1ccccc1F | inactive: 79% |
| O=C(NC1CCCC1)c1ccc2c(=O)n(Cc3ccccc3)c(SCc3cccc([N+](=O)[O-])c3)nc2c1 | inactive: 106% |
| CCOc1ccccc1NC(=O)C(=O)NCCc1sc2nc(-c3ccc(OC)cc3)nn2c1C | inactive: 83% |
| Cc1ccc(NC(=O)NCCOCCn2c(=O)oc3ccccc32)cc1C | inactive: 86% |
| CCOc1ccc(CNC(=O)c2ccccc2NC(=O)c2nsc3ccccc23)cc1 | active: -5% |
| COC(=O)c1sccc1S(=O)(=O)N1CCN(c2ccc(C)cc2C)CC1 | inactive: 83% |
| CCOc1ccc(CNC(=O)C2CCN(C(=O)N3CC(CC)Oc4ccccc43)CC2)cc1 (stereo not drawn) | inactive: 106% |
| Cc1c(Cl)cccc1NC(=O)N1CCOc2ccccc21 | inactive: 90% |
| Cc1ccc(OCC(=O)Nc2ccc3nc(SCC(=O)Nc4ccc(C)cc4C)sc3c2)cc1 | inactive: 73% |
| S=c1[nH]nc(Cc2ccccc2)n1Cc1ccccc1 | inactive: 83% |
| CC(C)(C)c1ccc(C(=O)NC2(C(F)(F)F)NC(=O)N(CCc3ccccc3)C2=O)cc1 (stereo not drawn) | inactive: 50% |
| COc1cccc(NC(=O)CSc2ncc3c(n2)-c2ccc(Cl)cc2N(C)S3(=O)=O)c1 | active: 37% |
| CCCNC(=O)c1ccccc1NC(=O)c1nsc2ccccc12 | inactive: 77% |
| CCCN(CCC)CCCNC(=O)C1CCN(c2nc3ccc(CC)cc3s2)CC1 | inactive: 54% |
| N#C/C(=C\c1cccc(F)c1)c1nc(-c2cc3c(ccc4ccccc43)oc2=O)cs1 | inactive: 83% |
| CCOc1cc(C2c3c(oc4cc(C)cc(C)c4c3=O)C(=O)N2CCO)ccc1O (stereo not drawn) | inactive: 68% |
| CCOc1ccccc1NS(=O)(=O)c1ccc2[nH]c3c(c2c1)CCCCC3 | inactive: 84% |
| COc1ccc(S(=O)(=O)N(CC(=O)Nc2cc(C)ccc2OC)Cc2ccccc2)cc1 | inactive: 53% |
| COC(=O)c1ccc(NC(=O)CN2CCN(S(=O)(=O)c3ccc(Br)cc3)CC2)cc1 | inactive: 89% |
| O=c1c(Cl)c(NC2CC2)cnn1-c1ccccc1 | inactive: 68% |
